# Source: the supplement of paper PMC8728848
# This is one part of the list.
# Columns and labels:
# Test in all cases: glycan array binding signal (z-score within array); higher = stronger binding
# Conditions in all cases: glycan notation: IUPAC condensed, linker removed
# Fuc(a1-2)Gal = target: Fuc(a1-2)Gal
# Outline: (§1)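 The binding signal is a Z-score computed within each array and averaged over linkers. Arrays of the same protein sequence at different concentrations or buffers were also averaged together. Data originate from 3228 arrays in the Consortium for Functional Glycomics database, kept only where the protein sequence was available.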
# Fuc(a1-2)Gal(b1-3)GalNAc = target: Fuc(a1-2)Gal(b1-3)GalNAc
# Outline: as §1
# [1] = target: Fuc(a1-2)Gal(b1-3)GalNAc(b1-3)Gal
# Outline: as §1
# [2] = target: Fuc(a1-2)Gal(b1-3)GalNAc(b1-3)Gal(a1-4)Gal(b1-4)Glc
# Outline: as §1
# [3] = target: Fuc(a1-2)Gal(b1-3)GalNAc(b1-4)[Neu5Ac(a2-3)]Gal(b1-4)Glc
# Outline: as §1
# Fuc(a1-2)Gal(b1-3)GlcNAc = target: Fuc(a1-2)Gal(b1-3)GlcNAc
# Outline: as §1
# [4] = target: Fuc(a1-2)Gal(b1-3)GlcNAc(b1-2)Man(a1-3)[Fuc(a1-2)Gal(b1-3)GlcNAc(b1-2)Man(a1-6)]Man(b1-4)GlcNAc(b1-4)GlcNAc
# Outline: as §1
# [5] = target: Fuc(a1-2)Gal(b1-3)GlcNAc(b1-3)Gal(b1-4)Glc
# Outline: as §1
# [6] = target: Fuc(a1-2)Gal(b1-3)GlcNAc(b1-3)[Gal(b1-4)[Fuc(a1-3)]GlcNAc(b1-6)]Gal(b1-4)Glc
# Outline: as §1
# [7] = target: Fuc(a1-2)Gal(b1-3)[Fuc(a1-4)]GlcNAc
# Outline: as §1
# [8] = target: Fuc(a1-2)Gal(b1-3)[Fuc(a1-4)]GlcNAc(b1-2)Man(a1-3)[Fuc(a1-2)Gal(b1-3)[Fuc(a1-4)]GlcNAc(b1-2)Man(a1-6)]Man(b1-4)GlcNAc(b1-4)GlcNAc
# Outline: as §1
# Fuc(a1-2)Gal(b1-4)Glc = target: Fuc(a1-2)Gal(b1-4)Glc
# Outline: as §1
# Fuc(a1-2)Gal(b1-4)Glc6S = target: Fuc(a1-2)Gal(b1-4)Glc6S
# Outline: as §1
# Fuc(a1-2)Gal(b1-4)GlcNAc = target: Fuc(a1-2)Gal(b1-4)GlcNAc
# Outline: as §1
# [9] = target: Fuc(a1-2)Gal(b1-4)GlcNAc(b1-2)Man(a1-3)[Fuc(a1-2)Gal(b1-4)GlcNAc(b1-2)Man(a1-6)]Man(b1-4)GlcNAc(b1-4)GlcNAc
# Outline: as §1
# [10] = target: Fuc(a1-2)Gal(b1-4)GlcNAc(b1-3)Gal(b1-4)GlcNAc
# Outline: as §1
# [11] = target: Fuc(a1-2)Gal(b1-4)GlcNAc(b1-3)Gal(b1-4)GlcNAc(b1-3)Gal(b1-4)GlcNAc
# Outline: as §1
# [12] = target: Fuc(a1-2)Gal(b1-4)GlcNAc6S
# Outline: as §1
# [13] = target: Fuc(a1-2)Gal(b1-4)[Fuc(a1-3)]GlcNAc
# Outline: as §1
# [14] = target: Fuc(a1-2)Gal(b1-4)[Fuc(a1-3)]GlcNAc(b1-2)Man(a1-3)[Fuc(a1-2)Gal(b1-4)[Fuc(a1-3)]GlcNAc(b1-2)Man(a1-6)]Man(b1-4)GlcNAc(b1-4)GlcNAc
# Outline: as §1
# [15] = target: Fuc(a1-2)Gal(b1-4)[Fuc(a1-3)]GlcNAc(b1-3)Gal(b1-4)[Fuc(a1-3)]GlcNAc
# Outline: as §1
# [16] = target: Fuc(a1-2)Gal(b1-4)[Fuc(a1-3)]GlcNAc(b1-3)Gal(b1-4)[Fuc(a1-3)]GlcNAc(b1-3)Gal(b1-4)[Fuc(a1-3)]GlcNAc
# Outline: as §1
# Fuc(a1-2)Gal6S(b1-4)Glc = target: Fuc(a1-2)Gal6S(b1-4)Glc
# Outline: as §1
# [17] = target: Fuc(a1-2)Gal6S(b1-4)Glc6S
# Outline: as §1
# [18] = target: Fuc(a1-2)Gal6S(b1-4)GlcNAc
# Outline: as §1
# Fuc(a1-2)[Gal(a1-3)]Gal = target: Fuc(a1-2)[Gal(a1-3)]Gal
# Outline: as §1
# [19] = target: Fuc(a1-2)[Gal(a1-3)]Gal(b1-3)GlcNAc
# Outline: as §1
# [20] = target: Fuc(a1-2)[Gal(a1-3)]Gal(b1-3)GlcNAc(b1-2)Man(a1-3)[Fuc(a1-2)[Gal(a1-3)]Gal(b1-3)GlcNAc(b1-2)Man(a1-6)]Man(b1-4)GlcNAc(b1-4)GlcNAc
# Outline: as §1
# [21] = target: Fuc(a1-2)[Gal(a1-3)]Gal(b1-4)Glc
# Outline: as §1
# [22] = target: Fuc(a1-2)[Gal(a1-3)]Gal(b1-4)GlcNAc
# Outline: as §1
# [23] = target: Fuc(a1-2)[Gal(a1-3)]Gal(b1-4)GlcNAc(b1-2)Man(a1-3)[Fuc(a1-2)[Gal(a1-3)]Gal(b1-4)GlcNAc(b1-2)Man(a1-6)]Man(b1-4)GlcNAc(b1-4)GlcNAc
# Outline: as §1
# [24] = target: Fuc(a1-2)[Gal(a1-3)]Gal(b1-4)[Fuc(a1-3)]GlcNAc
# Outline: as §1
# [25] = target: Fuc(a1-2)[Gal(a1-4)]Gal(b1-4)GlcNAc
# Outline: as §1
# [26] = target: Fuc(a1-2)[GalNAc(a1-3)]Gal
# Outline: as §1
# [27] = target: Fuc(a1-2)[GalNAc(a1-3)]Gal(b1-3)GlcNAc
# Outline: as §1
# [28] = target: Fuc(a1-2)[GalNAc(a1-3)]Gal(b1-3)GlcNAc(b1-2)Man(a1-3)[Fuc(a1-2)[GalNAc(a1-3)]Gal(b1-3)GlcNAc(b1-2)Man(a1-6)]Man(b1-4)GlcNAc(b1-4)GlcNAc
# Outline: as §1
# [29] = target: Fuc(a1-2)[GalNAc(a1-3)]Gal(b1-4)Glc
# Outline: as §1
# [30] = target: Fuc(a1-2)[GalNAc(a1-3)]Gal(b1-4)GlcNAc
# Outline: as §1
# [31] = target: Fuc(a1-2)[GalNAc(a1-3)]Gal(b1-4)GlcNAc(b1-2)Man(a1-3)[GalNAc(a1-3)[Fuc(a1-2)]Gal(b1-4)GlcNAc(b1-2)Man(a1-6)]Man(b1-4)GlcNAc(b1-4)GlcNAc
# Outline: as §1
# [32] = target: Fuc(a1-2)[GalNAc(a1-3)]Gal(b1-4)GlcNAc(b1-3)Gal(b1-4)GlcNAc
# Outline: as §1
# [33] = target: Fuc(a1-2)[GalNAc(a1-3)]Gal(b1-4)GlcNAc(b1-3)Gal(b1-4)GlcNAc(b1-3)Gal(b1-4)GlcNAc
# Outline: as §1
# [34] = target: Fuc(a1-2)[GalNAc(a1-3)]Gal(b1-4)[Fuc(a1-3)]GlcNAc
# Outline: as §1
# [35] = target: Fuc(a1-2)[GalNAc(a1-4)]Gal(b1-4)GlcNAc
# Outline: as §1
# [36] = target: Fuc(a1-2)[GalNAc(b1-3)]Gal
# Outline: as §1
# Fuc(a1-3)GlcNAc = target: Fuc(a1-3)GlcNAc
# Outline: as §1
# [37] = target: Fuc(a1-3)[Gal(b1-4)]Glc6S
# Outline: as §1
# [38] = target: Fuc(a1-3)[Gal(b1-4)]GlcNAc
# Outline: as §1
# [39] = target: Fuc(a1-3)[Gal(b1-4)]GlcNAc(b1-2)Man(a1-3)[Fuc(a1-3)[Gal(b1-4)]GlcNAc(b1-2)Man(a1-6)]Man(b1-4)GlcNAc(b1-4)GlcNAc
# Outline: as §1
# [40] = target: Fuc(a1-3)[Gal(b1-4)]GlcNAc(b1-2)Man(a1-6)[Gal(b1-4)GlcNAc(b1-2)Man(a1-3)]Man(b1-4)GlcNAc(b1-4)GlcNAc
# Outline: as §1
# [41] = target: Fuc(a1-3)[Gal(b1-4)]GlcNAc(b1-3)Gal(b1-3)[Fuc(a1-4)]GlcNAc
# Outline: as §1
# [42] = target: Fuc(a1-3)[Gal(b1-4)]GlcNAc(b1-4)Gal(b1-4)[Fuc(a1-3)]GlcNAc
# Outline: as §1
# [43] = target: Fuc(a1-3)[Gal(b1-4)]GlcNAc(b1-4)Gal(b1-4)[Fuc(a1-3)]GlcNAc(b1-4)Gal(b1-4)[Fuc(a1-3)]GlcNAc
# Outline: as §1
# [44] = target: Fuc(a1-3)[Gal(b1-4)]GlcNAc6S
# Outline: as §1
# [45] = target: Fuc(a1-3)[Gal3S(b1-4)]Glc6S
# Outline: as §1
# [46] = target: Fuc(a1-3)[Gal3S(b1-4)]GlcNAc
# Outline: as §1
# [47] = target: Fuc(a1-3)[Gal3S(b1-4)]GlcNAc6S
# Outline: as §1
# [48] = target: Fuc(a1-3)[GalNAc(b1-4)]GlcNAc
# Outline: as §1
# [49] = target: Fuc(a1-3)[Neu5Ac(a2-3)]Gal(b1-4)GlcNAc(b1-3)GalNAc
# Outline: as §1
# Fuc(a1-4)GlcNAc = target: Fuc(a1-4)GlcNAc
# Outline: as §1
# Fuc(b1-3)GlcNAc = target: Fuc(b1-3)GlcNAc
# Outline: as §1
binder,measurement,setting,value
"DGL (Dioclea grandiflora), P08902 (protein) ADTIVAVELDSYPNTDIGDPNYPHIGIDIKSIRSKSTARWNMQTGKVGTVHISYNSVAKRLSAVVSYSGSSSTTVSYDVDLNNVLPEWVRVGLSATTGLYKETNTILSWSFTSKLKTNSIADENSLHFSFHKFSQNPKDLILQGDAFTDSDGNLELTKVSSSGDPQGNSVGRALFYAPVHIWESSAVVASFDATFTFLIKSPDREPADGITFFIANTDTSIPSGSGGRLLGLFPDAN",glycan array binding signal (z-score),Fuc(a1-2)Gal,-0.163
same,glycan array binding signal (z-score),Fuc(a1-2)Gal(b1-3)GalNAc,-0.179
same,glycan array binding signal (z-score),[1],-0.166
same,glycan array binding signal (z-score),[2],-0.175
same,glycan array binding signal (z-score),[3],-0.179
same,glycan array binding signal (z-score),Fuc(a1-2)Gal(b1-3)GlcNAc,-0.175
same,glycan array binding signal (z-score),[4],-0.167
same,glycan array binding signal (z-score),[5],-0.177
same,glycan array binding signal (z-score),[6],-0.181
same,glycan array binding signal (z-score),[7],-0.175
same,glycan array binding signal (z-score),[8],-0.169
same,glycan array binding signal (z-score),Fuc(a1-2)Gal(b1-4)Glc,-0.18
same,glycan array binding signal (z-score),Fuc(a1-2)Gal(b1-4)Glc6S,-0.172
same,glycan array binding signal (z-score),Fuc(a1-2)Gal(b1-4)GlcNAc,-0.179
same,glycan array binding signal (z-score),[9],-0.185
same,glycan array binding signal (z-score),[10],-0.176
same,glycan array binding signal (z-score),[11],-0.179
same,glycan array binding signal (z-score),[12],-0.172
same,glycan array binding signal (z-score),[13],-0.176
same,glycan array binding signal (z-score),[14],-0.144
same,glycan array binding signal (z-score),[15],-0.182
same,glycan array binding signal (z-score),[16],-0.168
same,glycan array binding signal (z-score),Fuc(a1-2)Gal6S(b1-4)Glc,-0.158
same,glycan array binding signal (z-score),[17],-0.176
same,glycan array binding signal (z-score),[18],-0.173
same,glycan array binding signal (z-score),Fuc(a1-2)[Gal(a1-3)]Gal,-0.174
same,glycan array binding signal (z-score),[19],-0.18
same,glycan array binding signal (z-score),[20],-0.167
same,glycan array binding signal (z-score),[21],-0.177
same,glycan array binding signal (z-score),[22],-0.181
same,glycan array binding signal (z-score),[23],-0.17
same,glycan array binding signal (z-score),[24],-0.184
same,glycan array binding signal (z-score),[25],-0.182
same,glycan array binding signal (z-score),[26],-0.179
same,glycan array binding signal (z-score),[27],-0.164
same,glycan array binding signal (z-score),[28],-0.173
same,glycan array binding signal (z-score),[29],-0.174
same,glycan array binding signal (z-score),[30],-0.183
same,glycan array binding signal (z-score),[31],-0.184
same,glycan array binding signal (z-score),[32],-0.174
same,glycan array binding signal (z-score),[33],-0.174
same,glycan array binding signal (z-score),[34],-0.172
same,glycan array binding signal (z-score),[35],-0.174
same,glycan array binding signal (z-score),[36],-0.18
same,glycan array binding signal (z-score),Fuc(a1-3)GlcNAc,-0.177
same,glycan array binding signal (z-score),[37],-0.184
same,glycan array binding signal (z-score),[38],-0.162
same,glycan array binding signal (z-score),[39],-0.178
same,glycan array binding signal (z-score),[40],-0.184
same,glycan array binding signal (z-score),[41],-0.182
same,glycan array binding signal (z-score),[42],-0.181
same,glycan array binding signal (z-score),[43],-0.182
same,glycan array binding signal (z-score),[44],-0.172
same,glycan array binding signal (z-score),[45],-0.182
same,glycan array binding signal (z-score),[46],-0.174
same,glycan array binding signal (z-score),[47],-0.169
same,glycan array binding signal (z-score),[48],-0.177
same,glycan array binding signal (z-score),[49],-0.072
same,glycan array binding signal (z-score),Fuc(a1-4)GlcNAc,-0.175
same,glycan array binding signal (z-score),Fuc(b1-3)GlcNAc,-0.178
